Data on 44 compounds can be found in paper PMC4336329 (PLoS ONE, 2015).

About 14,000 (4.5%) of roughly 310,000 compounds showed an effect of 50% or more. Effects have a minus sign here. The list shows a part of the results.
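Note: peak tail current of the secondary pulse compared with the same well before compound.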

human ether-à-go-go-related gene (hERG) potassium channel, sequence (Q12809 whole entry, looked up): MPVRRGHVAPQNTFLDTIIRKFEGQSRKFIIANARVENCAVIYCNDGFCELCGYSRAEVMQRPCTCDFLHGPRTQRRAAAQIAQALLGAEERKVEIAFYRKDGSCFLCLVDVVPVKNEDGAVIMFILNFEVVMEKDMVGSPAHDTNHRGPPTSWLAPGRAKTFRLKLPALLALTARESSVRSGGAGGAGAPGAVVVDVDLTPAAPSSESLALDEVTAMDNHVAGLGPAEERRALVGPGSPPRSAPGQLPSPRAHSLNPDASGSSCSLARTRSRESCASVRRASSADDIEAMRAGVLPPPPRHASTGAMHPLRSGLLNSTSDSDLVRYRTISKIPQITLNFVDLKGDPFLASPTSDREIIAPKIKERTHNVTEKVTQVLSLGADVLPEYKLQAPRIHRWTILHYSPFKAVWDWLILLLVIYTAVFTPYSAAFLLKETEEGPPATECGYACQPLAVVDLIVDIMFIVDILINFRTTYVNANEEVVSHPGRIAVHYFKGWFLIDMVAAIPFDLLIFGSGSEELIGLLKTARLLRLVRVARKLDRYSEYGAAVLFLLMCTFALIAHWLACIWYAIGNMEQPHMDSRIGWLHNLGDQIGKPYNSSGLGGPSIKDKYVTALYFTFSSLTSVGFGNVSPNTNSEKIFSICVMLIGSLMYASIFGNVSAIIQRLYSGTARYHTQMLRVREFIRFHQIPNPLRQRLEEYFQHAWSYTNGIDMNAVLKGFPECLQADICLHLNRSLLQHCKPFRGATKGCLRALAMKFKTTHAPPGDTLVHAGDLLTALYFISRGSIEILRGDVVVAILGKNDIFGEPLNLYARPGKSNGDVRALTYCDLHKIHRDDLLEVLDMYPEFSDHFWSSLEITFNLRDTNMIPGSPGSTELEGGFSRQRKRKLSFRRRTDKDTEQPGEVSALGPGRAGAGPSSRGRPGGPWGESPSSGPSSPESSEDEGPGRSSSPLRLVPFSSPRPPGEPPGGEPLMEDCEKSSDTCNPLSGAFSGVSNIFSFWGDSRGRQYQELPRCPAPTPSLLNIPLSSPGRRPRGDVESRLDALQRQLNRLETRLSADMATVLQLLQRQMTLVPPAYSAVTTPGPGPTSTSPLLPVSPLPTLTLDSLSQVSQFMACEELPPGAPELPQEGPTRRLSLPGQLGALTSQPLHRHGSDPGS

The test concerns the target human ether-à-go-go-related gene (hERG) potassium channel (human, UniProt Q12809). The test can be described thus: primary screen, population patch clamp on CHO cells stably expressing hERG.
In the case of `CC(=O)c1cc(C#N)c(SCc2ccc(F)cc2)nc1C`, the “hERG current change (%, negative = inhibition) at 10uM” value is recorded as 10.5%.
Under `Cc1ccc(C23CC4CC(CC(CC(=O)NC(C)(C)CO)(C4)C2)C3)cc1` stands 11.7%; under `CC(C)CN1C(=O)C(=O)N(CC(=O)NCc2ccc3c(c2)OCO3)C1=O`, 10.4%; under `O=C(Nc1ccc(Cl)c(Cl)c1)Nc1ccccn1`, 2.95%.
With `CCOC(=O)c1c(C)nc2sc(C(N)=O)c(N)c2c1-c1ccc(OC)cc1`, the “hERG current change (%, negative = inhibition) at 10uM” value is on record as 3.47%.
As for `O=C1O[C@@H](c2ccc(O)cc2)Cc2cccc(O)c21`, the “hERG current change (%, negative = inhibition) at 10uM” value amounted to 12.1%.
Regarding `Cc1cccc(OCC(O)CN2CCOCC2)c1.Cl` (centres unmarked), the “hERG current change (%, negative = inhibition) at 10uM” value was found to be 10.9%.
As to `Cc1cccc(OCC(=O)Nc2ccc(C(=O)c3ccc(C(=O)O)cc3)cc2)c1`, the “hERG current change (%, negative = inhibition) at 10uM” value worked out at 1.93%.
Take `CC1CCCCC1n1c(=S)[nH]c2ccccc2c1=O` (centres unmarked): the “hERG current change (%, negative = inhibition) at 10uM” value is on record as 2.97%.
The same measure for `CCN(CC)S(=O)(=O)c1cc(NS(=O)(=O)c2c(Cl)cccc2Cl)ccc1C`: -33.6%; for `CCn1c(=O)cc(SCC(=O)NCCCN2CCN(c3ccccc3F)CC2)c2ccccc21`: -62.2%; for `COc1cc([N+](=O)[O-])cc(/C=N/NC(=O)c2cc(C)nc3ccccc23)c1O`: 10.1%.
Take `Cc1ccccc1-c1nc(CN2CCC(C(=O)N3CCC(C(N)=O)CC3)CC2)c(C)o1`: the “hERG current change (%, negative = inhibition) at 10uM” value was 2.7%.
Take `COc1ccc(OCC(=O)NC(=S)Nc2ccc3c4c(cccc24)CC3)cc1`: the “hERG current change (%, negative = inhibition) at 10uM” value worked out at 16.6%.
On to `Cc1[nH]c(=S)[nH]c(=O)c1Cc1ccccc1`, for which the “hERG current change (%, negative = inhibition) at 10uM” value is 12.7%.
Under `Cn1c(N)c(C(=O)COC(=O)c2cccnc2Cl)c(=O)n(C)c1=O` stands -8.28%; under `CCOc1ccc2c(=O)c(Oc3ccccc3)c(C)oc2c1`, -6.41%.
For the compound `CN(Cc1ccon1)C(=O)C1CCN(C2CCN(CCCc3ccccc3)CC2)CC1`, the “hERG current change (%, negative = inhibition) at 10uM” value is reported as -34.1%.
Take `COc1ccc(C(=O)O)nc1C`: the “hERG current change (%, negative = inhibition) at 10uM” value is listed as 5.78%.
Under `Cc1ccc(NC(=O)NCc2ccccn2)c(C)c1` stands 13.4%; under `Cc1noc(C)c1S(=O)(=O)Nc1ccc(C(=O)N2CCN(c3cccc(Cl)c3)CC2)cc1`, -4.16%.
On to `C#CCOCCOCCOCCNc1nc(N2CCN(C(=O)[C@H](Cc3cc4ccccc4[nH]3)n3cc([C@@H](N)C(C)CC)nn3)CC2)nc(N2CCN(C(=O)[C@H](Cc3cc4ccccc4[nH]3)n3cc([C@@H](N)CC(C)C)nn3)CC2)n1.Cl` (some centres unmarked), for which the “hERG current change (%, negative = inhibition) at 10uM” value is reported as -1.93%.
With `Cn1nc([N+](=O)[O-])nc1Sc1cccc2cccnc12`, the “hERG current change (%, negative = inhibition) at 10uM” value turned out to be 13.9%.
Under `C/C(=N\NC(=O)C1CC1)c1ccc2c(c1)OCCO2` stands 3.37%; under `CCOc1ccc(S(=O)(=O)N2CCN(C(=O)CN3C(=O)NC(C)(C)C3=O)CC2)cc1`, -12.4%.
For `CC(C)c1ccc(-c2nc(N3CCCCCC3)nc3n[nH]c(N)c23)cc1`, the “hERG current change (%, negative = inhibition) at 10uM” value was 11.4%.
For `CCCCNCCCOc1cc(Cl)ccc1Cl.O=C(O)C(=O)O`, the “hERG current change (%, negative = inhibition) at 10uM” value is on record as -54.3%.
Regarding `S=C(NCCc1ccccc1)Nc1ccc(N2CCCCC2)cc1`, the “hERG current change (%, negative = inhibition) at 10uM” value was 14.2%.
As to `Oc1ccc(N=Cc2ccc(O)c(O)c2)cc1`, the “hERG current change (%, negative = inhibition) at 10uM” value is -3.33%.
In the case of `CS(=O)(=O)N1CCN(c2ccc(NC(=O)COc3ccccc3[N+](=O)[O-])cc2)CC1`, the “hERG current change (%, negative = inhibition) at 10uM” value is 1.93%.
Take `FC(F)(F)c1nc(-c2cccs2)ncc1-c1nnnn1-c1ccc(Cl)cc1`: the “hERG current change (%, negative = inhibition) at 10uM” value is given as -8.44%.
`CCN(CC)c1c2c(c(C#N)c3nc4ccccc4n13)CCC2`: the “hERG current change (%, negative = inhibition) at 10uM” value is listed as -7.44%.
Under `Cn1c(=O)c(-c2cccc(Cl)c2)c(O)c2ccccc21` stands 14%; under `CCOc1cc(/C=N\NC(=O)Cc2ccccc2)ccc1OCC(=O)Nc1ccc(C)c(C)c1`, 16.7%.
As to `O=C(CSC1=NS(=O)(=O)c2ccccc2N1)NCCc1ccccc1`, the “hERG current change (%, negative = inhibition) at 10uM” value was -2.47%.
Under `COc1ccc(OC)c(-c2csc(NC(=O)CSc3ccc(Br)cc3)n2)c1` stands 19%; under `COc1ccc(/C(O)=C2/C(=O)C(=O)N(c3ncccn3)C2c2ccc(F)cc2)cc1` (centres unmarked), 14%.
The same measure for `CC(C)(C)C1(O)CC(C(F)(F)F)=NN1C(=O)CCCc1ccccc1` (centres unmarked): 0.439%; for `COC(=O)CSC1=C(C#N)C(=O)NC(c2ccccc2)S1` (centres unmarked): 14.2%.
In the case of `COc1ccc(NS(=O)(=O)c2ccc3oc(=S)[nH]c3c2)cc1`, the “hERG current change (%, negative = inhibition) at 10uM” value came out at 20.2%.
As for `CCCCOC(=O)CSc1nc(N)c(C#N)c(-c2ccc(OC)cc2)c1C#N`, the “hERG current change (%, negative = inhibition) at 10uM” value worked out at 9.13%.
As for `O=C(c1ccc(-n2cccc2)cc1)N1CCN(Cc2ccccc2)CC1`, the “hERG current change (%, negative = inhibition) at 10uM” value is -81.1%.
Turning to `Cc1ccc(SCC(=O)OCC(=O)NCC2CCCCC2)cc1C`, the “hERG current change (%, negative = inhibition) at 10uM” value amounted to 7.75%.
The same measure for `COc1cc(NC(=O)c2ccccc2)c(OC)cc1NC(=O)CSc1[nH]c(=O)cc(C)c1C#N`: 15.7%.
